# According to the antibiotic and cytotoxicity screens of Wong et al. (2023):
# This is one part of the list.
# Tests used:
# [1] = test system: HSkMC (human skeletal muscle cells); test: cytotoxicity call (relative viability < 0.9); conditions: 10 µM
# [2] = test system: HepG2; test: cytotoxicity call (relative viability < 0.9); conditions: 10 µM
# [3] = test system: S. aureus RN4220; test: growth inhibition call (relative growth <= 0.2); conditions: 50 µM
Structure (SMILES),cytotoxicity call [1],cytotoxicity call [2],growth inhibition call [3]
O=C(O)c1ccccc1-c1c2cc(I)c(=O)c(I)c-2oc2c(I)c(O)c(I)cc12,active,inactive,active
C[C@@H]1CN([C@@H](C)CO)C(=O)c2cc(C#Cc3ccc(F)cc3)cnc2O[C@@H]1CN(C)Cc1ccccn1,inactive,inactive,inactive
CC1(C)CC(/C=C/c2ccccc2)=Nc2ccccc2N1,inactive,inactive,inactive
C[C@@H](NCCC(c1ccccc1)c1ccccc1)c1ccccc1,inactive,active,inactive
COc1ccc(C#Cc2cnc3c(c2)C(=O)N([C@H](C)CO)C[C@@H](C)[C@H](CN(C)CC2CCOCC2)O3)cc1,inactive,inactive,inactive
O=C(NC(Cc1cc(=O)[nH]c2ccccc12)C(=O)O)c1ccc(Cl)cc1 (stereo not given),inactive,active,inactive
C[C@@H]1CN([C@H](C)CO)C(=O)c2cc(NS(C)(=O)=O)ccc2O[C@@H]1CN(C)Cc1ccc(C(F)(F)F)cc1,inactive,inactive,inactive
C[C@@H]1CN([C@@H](C)CO)C(=O)c2cc(NS(C)(=O)=O)ccc2O[C@@H]1CN(C)S(=O)(=O)c1cccs1,inactive,inactive,inactive
COc1cccc(-c2ccc3c(c2)O[C@H](CN(C)Cc2cncnc2)[C@H](C)CN([C@H](C)CO)S3(=O)=O)c1,inactive,inactive,inactive
O=C(NCCN1CCOCC1)c1ccc(Cl)c(S(=O)(=O)N2CCOCC2)c1,inactive,inactive,inactive
C[C@@H]1CN([C@H](C)CO)C(=O)c2cc(NC(=O)CCCN(C)C)ccc2O[C@@H](C)CCCCO[C@H]1CN(C)C(=O)Nc1ccc(F)cc1,inactive,inactive,inactive
C[C@@H]1CN([C@H](C)CO)C(=O)c2cc(NS(=O)(=O)c3cn(C)cn3)ccc2O[C@H]1CN(C)S(=O)(=O)c1cccs1,inactive,inactive,inactive
FC(F)(F)c1cc(NC(=S)Nc2ccc(Br)cc2-c2nn[nH]n2)cc(C(F)(F)F)c1,active,inactive,active
CO[C@@H]1CN(C)C(=O)c2cc(NS(C)(=O)=O)ccc2OC[C@@H](C)N(C(=O)C2CCCCC2)C[C@@H]1C,inactive,inactive,inactive
O=C(O)[C@@H](O)Cc1ccc(O)c(O)c1,inactive,inactive,inactive
CC(C)NC(=O)N(C)C[C@H]1Oc2ccc(NS(=O)(=O)c3ccccc3)cc2CC(=O)N([C@@H](C)CO)C[C@@H]1C,inactive,inactive,inactive
CC(=O)n1cc([C@@H]2C=C(C(=O)N3CCN(C)CC3)O[C@H](OCc3ccc(CO)cc3)C2)c2ccccc21,inactive,inactive,inactive
COc1ccc2c3c(n(c2c1)C)[C@@H](CO)N(C[C@]13CN(CC2CCOCC2)C1)C(=O)Cc1ccccn1,inactive,inactive,inactive
Cc1ccc(S(=O)(=O)Nc2ccc3c(c2)CC(=O)N([C@H](C)CO)C[C@H](C)[C@@H](CN(C)C(=O)Nc2cccc4ccccc24)O3)cc1,inactive,inactive,inactive
Cc1ccc(S(=O)(=O)N(C)C[C@@H]2Oc3ccc(NC(=O)NC(C)C)cc3C(=O)N([C@@H](C)CO)C[C@H]2C)cc1,inactive,inactive,inactive

Structure (SMILES),cytotoxicity call [1],cytotoxicity call [2],growth inhibition call [3]
CC(=O)OC[C@H]1OC[C@H](OC(C)=O)[C@@H](OC(C)=O)[C@H]1OC(C)=O,inactive,inactive,inactive
C[C@@H]1CCCCO[C@H](CN(C)C)[C@H](C)CN([C@@H](C)CO)C(=O)c2cc(NS(=O)(=O)c3cn(C)cn3)ccc2O1,inactive,inactive,inactive
C[C@@H]1CCCCO[C@H](CN(C)Cc2ccc(C(=O)O)cc2)[C@H](C)CN([C@@H](C)CO)C(=O)c2cc(NC(=O)NC3CCCCC3)ccc2O1,inactive,inactive,inactive
C[C@@H]1CCCCO[C@@H](CN(C)Cc2ccc(C(=O)O)cc2)[C@@H](C)CN([C@@H](C)CO)C(=O)c2cc(NC(=O)Nc3ccccc3)ccc2O1,inactive,inactive,inactive
C[C@H](CO)N1C[C@H](C)[C@@H](CN(C)C)OCCCC[C@H](C)Oc2ccc(NC(=O)Nc3ccc(C(F)(F)F)cc3)cc2C1=O,inactive,inactive,inactive
Cn1c(N2CCOCC2)nc2c1c(=O)[nH]c(=O)n2C,inactive,inactive,inactive
CC(=O)O[C@@H]1[C@H](OC(C)=O)N(C(C)=O)C(=O)N1C(C)=O,inactive,inactive,inactive
N#CCOc1cccc2ccccc12,inactive,inactive,inactive
N[C@@H]1[C@@H](O)[C@H](O)[C@@H](CO)O[C@H]1O,inactive,inactive,inactive
CC(=O)O[C@H](C[C@H](O)C(C)(O)CCC=C(C)C)/C(C)=C/COC[C@@H](O)[C@@H](O)[C@@H](O)[C@@H](O)CO (stereo not given in full),inactive,inactive,inactive
COc1cccc(NC(=O)N2C[C@@H](O)COC[C@H]3O[C@@H](CC(=O)NC4Cc5ccccc5C4)CC[C@@H]32)c1,inactive,inactive,inactive
CCCCCCCCCCCCCCCC(=O)OC(C)C,inactive,inactive,inactive
Cc1noc(C)c1S(=O)(=O)N(C)C[C@@H]1Oc2ccc(NS(C)(=O)=O)cc2CC(=O)N([C@@H](C)CO)C[C@@H]1C,inactive,inactive,inactive
COc1ccc2c3c([nH]c2c1)[C@@H](CO)N(C[C@]13CCN(CC1)Cc1ccccc1)S(=O)(=O)c1cn(cn1)C,inactive,inactive,inactive
C=C(C)C1CCC2(CO)CCC3(C)C(CCC4C5(C)CCC(O)C(C)(C)C5CCC43C)C12 (stereo not given),active,active,inactive
C[C@@H]1CN([C@H](C)CO)C(=O)Cc2cc(NC(=O)Nc3ccc(C(F)(F)F)cc3)ccc2O[C@@H]1CN(C)CC1CCCCC1,active,active,inactive
[O-][NH2+]N1CCCC1,inactive,inactive,inactive
C[C@@H]1CN([C@H](C)CO)C(=O)c2cc(C#CC3(O)CCCC3)cnc2O[C@H]1CN(C)C(=O)Nc1ccc2c(c1)OCO2,inactive,inactive,inactive
C[C@@H]1CN([C@H](C)CO)C(=O)c2cc(NS(=O)(=O)c3ccc(F)cc3)ccc2O[C@@H]1CN(C)CC1CC1,inactive,inactive,inactive
O=C(O)c1ccc(-c2ccco2)s1,inactive,inactive,inactive
